Test results published in PubChem BioAssay AID588855 (National Center for Advancing Translational Sciences (NCATS), 2011).
Hit rate of the full screen: of about 410,000 compounds, about 5,000 (1.2%) were called active. Inconclusive means that the source gave no clear call. Such entries were picked first, then a sample of the others. The call rests on the fitted dose curve; in most records, active means well fitted inhibition curve with a large enough effect; inconclusive means small, poorly fitted or top-dose-only effect; inactive means no such curve, though single readings can be large or run the other way. Potencies of inconclusive entries are doubtful fits and often do not repeat.

Test: qHTS for Inhibitors of TGF-b; further: nearly all actives have a fitted effect of over 65% in size
Details: HepG2 CAGA-GFP TGF-b/SMAD3 reporter, GFP fluorescence, 18 h, TGF-beta stimulated, 500 pg/mL final; series mostly up to 46.1 µM
Procedure, shortened: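 Read-out: total well GFP (ex488/em500-530) summed from mean per-cell fluorescence. Cells: HEPG2 CAGA-GFP, 1% FBS DMEM, 18 h at 37 degrees C with 500 pg/mL final TGF-beta. Unstimulated wells served as the full-inhibition control; stimulated DMSO wells = 0%.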
Potency means the concentration at half of the fitted maximal effect; tags describe the fitted curve by direction and shape.

SMILES | Potency
O=C(CCC(=O)c1cccs1)NCc1ccccc1Cl | inactive
Cc1nc2ccccn2c(=O)c1NC(=O)c1ccc(F)c(F)c1 | inactive
CN(CC(=O)NC(=O)NCc1ccccc1)CC(=O)Nc1ccc(Cl)c(Cl)c1 | inconclusive: 28.2 µM [inhibitor, single point]
Cc1cccc(NC(=O)C2CCCN2S(=O)(=O)c2ccc3nc(-c4ccccc4)[nH]c3c2)c1 (centres undefined) | inconclusive: 10 µM [inhibitor, partial curve, poor fit]
O=C(CSCc1ccccc1)Nc1cccc(F)c1 | inactive
Cc1cccc(N2C(=S)NC3c4ccccc4OC2(C)C3C(=O)N(C)C)c1 (centres undefined) | inconclusive: 35.5 µM [inhibitor, single point]
O=c1ccc(NS(=O)(=O)c2ccccc2Cl)cn1Cc1ccc(Cl)c(Cl)c1 | inconclusive: 14.1 µM [inhibitor, single point]
Cc1ccc(NC(=O)CN(C)C(=O)c2cccc(S(=O)(=O)NCc3ccco3)c2)cc1 | inactive
O=C(CCN1CCN(c2ccccc2F)CC1)c1ccc(Br)cc1 | inconclusive: 28.2 µM [inhibitor, single point]
O=C(O)c1c2cc(Br)ccc2nc2[nH]c(=O)[nH]c(=O)c12 | inactive
Cc1ccc2occ(/C=N/NC(=O)[C@@H](N)Cc3ccccc3)c(=O)c2c1 | inactive
O=C(N/C(=C/c1cccc(Br)c1)c1nc(=S)[nH][nH]1)c1ccccc1 | inconclusive: 35.5 µM [inhibitor, single point]
Cc1c(C(=O)N(C)C2CC(C)(C)NC(C)(C)C2)oc2c(F)cccc12 | inconclusive: 20 µM [inhibitor, partial curve, poor fit]
O=C(c1ccccc1)c1cc(-c2ccccc2)on1 | inactive
Cc1nc2c(ccc3nc(NC(=O)C4CC4)sc32)s1 | inconclusive: 10 µM [inhibitor, partial curve, poor fit]
N#CC1=C2N=C(N)c3ccccc3N2C2=C(C(=O)CCC2)C1c1ccccc1F (centres undefined) | inactive
COc1ccc(-c2cc(COc3ccccc3)on2)cc1 | inactive
O=C(NCc1cnn(-c2ccc(F)cc2)c1)C1CCC(=O)N(C2CC2)C1 (centres undefined) | inconclusive: 35.5 µM [inhibitor, single point]
CCOc1cc(C(=O)Nc2ccc(-c3cn4cccnc4n3)cc2)cc(OCC)c1OCC | inconclusive: 3.55 µM [inhibitor, single point]
CCCN(CCC)c1ccc(C2N=C(N)Nc3nc4ccccc4n32)cc1 (centres undefined) | inconclusive: 35.5 µM [inhibitor, single point]
COc1ccc(NC(=O)c2cc3c(s2)-c2c(C)cccc2OC3)cc1Cl | inactive
COc1cccc(C(=O)Nc2cccc(-c3ccccc3)c2)c1 | inconclusive: 35.5 µM [inhibitor, single point]
Cc1ccc(C(=O)Cc2ccccc2)o1 | inactive

SMILES | Potency
O=C(COc1ccc(Br)cc1)N/N=C1/SCC(=O)N1Cc1ccccc1 | inconclusive: 22.4 µM [inhibitor, single point]
CCS(=O)(=O)N(CC(=O)Nc1cccc2ccccc12)c1ccc(OC)cc1 | inconclusive: 20 µM [inhibitor, single point]
CCCNC1=C(C)C(=O)CC1 | inconclusive: 35.5 µM [inhibitor, single point]
COc1ccccc1NC(=O)CN(Cc1ccco1)C(=O)c1ccc(Cl)nc1 | inconclusive: 0.112 µM [inhibitor, full curve, poor fit]
CCOC(=O)c1c(C)n(-c2ccccc2)c2ccc(OC(=O)COc3ccc(Cl)cc3)cc12 | inactive
O=C(O[C@@H]1[C@H](Cc2ccccc2)NS(=O)(=O)[C@H]2C[C@@H]3C=C[C@]12O3)c1ccccc1Br | inconclusive: 12.6 µM [inhibitor, partial curve, poor fit]
COCCCNC(=O)C1=CCN(S(=O)(=O)c2ccc(C)cc2)CC1 | inactive
NS(=O)(=O)c1cccc(NC(=O)CCSc2ccc(Cl)cc2)c1 | inconclusive: 6.31 µM [inhibitor, full curve, poor fit]
O=[N+]([O-])c1cc(-c2ncccn2)c([N+](=O)[O-])s1 | active: 11.2 µM
O=C(/C=C/c1ccccc1)NCC(=O)N/N=C/c1ccccc1[N+](=O)[O-] | inconclusive: 10 µM [inhibitor, partial curve]
O=C(CC1CCCC1)N1CCCC(Nc2cccc(F)c2)C1 (centres undefined) | inconclusive: 35.5 µM [inhibitor, partial curve, poor fit]
CCC(C)(C)NC(=O)C(c1cccn1C)N(Cc1ccc(OC)cc1)C(=O)Cn1nnc2ccccc21 (centres undefined) | inconclusive: 35.5 µM [inhibitor, single point]
O=C/C(=C\Nc1ccc(S(=O)(=O)CCO)cc1)c1nc2cc(Cl)ccc2o1 | inactive
O=c1ccc2nc3ccccc3sc-2c1 | active: 20 µM
Cc1cccc(CSc2nnc(CCCCCNC(=O)OC(C)(C)C)o2)c1 | inconclusive: 5.62 µM [inhibitor, single point]
CNc1nc(N)c(C(=O)C(C)(C)C)s1 | inconclusive: 6.31 µM [inhibitor, single point]
Cc1ccccc1OCCSc1nc2ccc(NC(=O)c3cccc(F)c3)cc2s1 | inconclusive: 20 µM [inhibitor, single point]
COc1cc2ncc3c(-c4ccc(C)cc4)nn(-c4ccc(F)cc4F)c3c2cc1OC | inconclusive: 0.562 µM [inhibitor, partial curve, poor fit]
CCC1=NN(C(=O)C(=O)NCCc2ccccc2)C(O)(C(F)(F)F)C1 (centres undefined) | inactive
COCCCn1c(=S)[nH]c2c(sc3ccccc32)c1=O | inactive
COc1cc2c(NC3CCN(C)CC3)nc(N3CCCCC3)nc2cc1OCCCN(C)C | active: 10 µM
CN(C(=O)c1ccncc1)C1CCS(=O)(=O)C1 (centres undefined) | inactive
O=C(C[C@@H]1C[C@@H]2c3cc(NS(=O)(=O)c4ccc(F)cc4)ccc3O[C@@H]2[C@H](CO)O1)NCc1ccc(Oc2ccccc2)cc1 | inconclusive: 22.4 µM [inhibitor, single point]

SMILES | Potency
C=C(C)COc1ccc(-c2ncncc2Oc2ccc(OC)cc2)c(O)c1 | inconclusive: 35.5 µM [inhibitor, single point]
O=[N+]([O-])c1ccc(/C=N/Nc2nc(N3CCCC3)nc(N3CCCC3)n2)o1 | inconclusive: 10 µM [inhibitor, partial curve]
O=S1(=O)c2ccc(Br)cc2N2CC[C@H](C2)N1Cc1ccc(Cl)cc1 | inactive
O=C(Nc1ccccc1F)c1ccc(Cn2nc(N3CCN(c4ccccc4)CC3)ccc2=O)o1 | inconclusive: 17.8 µM [inhibitor, single point]
Cn1nc(C(=O)OCC(=O)N(Cc2ccccc2)C(C)(C)C)c2ccccc2c1=O | inconclusive: 17.8 µM [inhibitor, single point]
Cc1cc2cc(CNC(=O)c3ccc(Br)o3)ccc2[nH]1 | inactive
COc1ccc(C(=O)Nc2ncccc2C)cc1S(=O)(=O)N1CCCc2ccccc21 | inconclusive: 6.31 µM [inhibitor, single point]
C/C(=N\NC(=O)Cc1c[nH]c2ccccc12)c1ccc2ccccc2c1 | inconclusive: 7.94 µM [inhibitor, partial curve, poor fit]
O=C(NC1CC(=O)N(c2cccc(F)c2)C1)c1ccc2c(c1)OCO2 (centres undefined) | inactive
CCOc1ccc(-c2cnc(NCc3cccc4ccccc34)n2CCOC)cc1 | inconclusive: 35.5 µM [inhibitor, single point]
OCCNCc1cccc(Br)c1 | inconclusive: 0.562 µM [inhibitor, partial curve, poor fit]
CC(C)N(C(=O)[C@H]1C[C@H](CC(=O)NCCN2CCOCC2)C(=O)N2CCc3c([nH]c4ccc(Cl)cc34)[C@]12C)C(C)C | inconclusive: 35.5 µM [inhibitor, single point]
Cc1ccc(-c2nnc(Nc3ccccc3O)c3ccccc23)cc1 | inconclusive: 35.5 µM [inhibitor, single point]
O=C(Nc1cc2c(cc1C(=O)c1ccccc1Br)OCCO2)c1ccccc1 | inactive
Cc1ccc(Cl)cc1N1CCN(C(=O)c2cnn(C)c2C2CCN(C(=O)OC(C)(C)C)CC2)CC1 | inconclusive: 35.5 µM [inhibitor, single point]
CC(=O)Nc1ccc(S(=O)(=O)Nc2ccccc2C(=O)N2CCCCC2)cc1 | inconclusive: 17.8 µM [inhibitor, single point]
Cc1ccc(NC(=O)CN2C(=O)c3ccccc3S2(=O)=O)cc1C | inconclusive: 15.8 µM [inhibitor, single point]
Cc1ccc2sc(-c3ccc(N)cc3)nc2c1 | inconclusive: 10 µM [inhibitor, partial curve, poor fit]
C[C@H]1CN([C@@H](C)CO)C(=O)c2cccc(NC(=O)c3ccc(-c4nccs4)cc3)c2O[C@@H]1CN(C)C(=O)NC1CCCCC1 | inactive
CCCCNC(=O)CSc1nc2nc(C)c(Cc3c(F)cccc3Cl)c(C)n2n1 | inconclusive: 35.5 µM [inhibitor, single point]
O=[N+]([O-])c1cccc(-c2cn3nc(-c4ccccc4)c(-c4ccccc4)nc3n2)c1 | inactive
O=C(Nc1nccs1)c1sc2ccccc2c1Cl | inconclusive: 1.41 µM [inhibitor, full curve, poor fit]
CCCCN1CC2=C(C1=O)C(c1ccc(O)cc1)NC(=O)N2C (centres undefined) | inconclusive: 12.6 µM [inhibitor, partial curve, poor fit]
